B1: GPR68, Q15743 (parent)
chain: MGNITADNSSMSCTIDHTIHQTLAPVVYVTVLVVGFPANCLSLYFGYLQIKARNELGVYLCNLTVADLFYICSLPFWLQYVLQHDNWSHGDLSCQVCGILLYENIYISVGFLCCISVDRYLAVAHPFRFHQFRTLKAAVGVSVVIWAKELLTSIYFLMHEEVIEDENQHRVCFEHYPIQAWQRAINYYRFLVGFLFPICLLLASYQGILRAVRRSHGTQKSRKDQIQRLVLSTVVIFLACFLPYHVLLLVRSVWEASCDFAKGVFNAYHFSLLLTSFNCVADPVLYCFVSETTHRDLARLRGACLAFLTCSRTGRAREAYPLGAPEASGKSGAQGEEPELLTKLHPAFQTPNSPGSGGFPTGRLA

Scores whose standard error is large were omitted. The source holds two more conditions with little spread; they are left out. Names with del lack the residues named; names with ins carry added residues between the positions named. For some assays here: The concentration of ogerin is not given here.

In series [1] the parent is B1. Kind of series: cAMP reporter score (Enrich2 score, wild type = 0); higher = more signal; HEK293T, FACS bins.
In series [2] the parent is B1. Briefly: surface expression score (Enrich2 score, wild type = 0); higher = more signal; HEK293T, FACS bins.

The text below walks through data of the GPR68 mutational scans of Howard et al. (2025).

For the variant MGNITADNSSMSCTIDHTIHQTLAPVVYVTVLVVGFPANCLSLYFGYLQIKARNELGVYLCNLTVADLFYICSLPFWLQYVLQHDNWSHGDLSCQVCGILLYENIYISVGFLCCISVDRYLAVAHPFRFHQFRTLKAAVGVSVVIWAKELLTSIYFLMHEEVIEDENQHRVCFEHYPIQAWQRAINYYRFLVGFLFPICLLLASYQGILRAVRRSHGTQKSRKDQIQRLVLSTVVIFLACFLPYHVLLLVRSVWEASCDFAKGVFNAYHFSLLLTSFNCVADPVLYCFVSETTHKDLARLRGACLAFLTCSRTGRAREAYPLGAPEASGKSGAQGEEPELLTKLHPAFQTPNSPGSGGFPTGRLA [R295K], the cAMP reporter score in series [1] (pH 5.5) was -0.484; in series [1] (pH 6) it was -0.259; in series [1] (pH 6, modulator: ogerin), -0.525; in series [1] (pH 6.5, modulator: ogerin), -0.359. Moreover, in series [2], the surface expression score worked out at 0.269.
Consider MGNITADNSSMSCTIDHTIHQTLAPVVYVTVLVVGFPANCLSLYFGYLQIKARNELGVYLCNLTVADLFYICSLPFWLQYVLQHDNWSHGDLSCQVCGILLYENIYISVGFLCCISVDRYLAVAHPFRFHQFRTLKAAVGVSVVIWAKELLTSIYFLMHEEVIEDENQHRVCFEHYPIQAWQRAINYYRFLVGFLFPICLLLASYQGILRAVRRSHGTQKSRKDQIQRLVLSTVVIFLACFLPYHVLLLVRSVWEASCDFAKGVFNAYHFSLLLTSFNCVADPVLYCFVSETTHHDLARLRGACLAFLTCSRTGRAREAYPLGAPEASGKSGAQGEEPELLTKLHPAFQTPNSPGSGGFPTGRLA [R295H], for which the cAMP reporter score is -0.447 in series [1] (pH 5.5); -0.138 in series [1] (pH 6); 0.243 in series [1] (pH 6, modulator: ogerin); -0.516 in series [1] (pH 6.5, modulator: ogerin). In addition, the surface expression score in series [2] was found to be 0.619.
With MGNITADNSSMSCTIDHTIHQTLAPVVYVTVLVVGFPANCLSLYFGYLQIKARNELGVYLCNLTVADLFYICSLPFWLQYVLQHDNWSHGDLSCQVCGILLYENIYISVGFLCCISVDRYLAVAHPFRFHQFRTLKAAVGVSVVIWAKELLTSIYFLMHEEVIEDENQHRVCFEHYPIQAWQRAINYYRFLVGFLFPICLLLASYQGILRAVRRSHGTQKSRKDQIQRLVLSTVVIFLACFLPYHVLLLVRSVWEASCDFAKGVFNAYHFSLLLTSFNCVADPVLYCFVSETTHLDLARLRGACLAFLTCSRTGRAREAYPLGAPEASGKSGAQGEEPELLTKLHPAFQTPNSPGSGGFPTGRLA [R295L], the cAMP reporter score is 0.451 in series [1] (pH 5.5); -1.19 in series [1] (pH 6); -0.158 in series [1] (pH 6, modulator: ogerin); -0.535 in series [1] (pH 6.5, modulator: ogerin). In addition, the surface expression score in series [2] turned out to be 0.748.
Regarding MGNITADNSSMSCTIDHTIHQTLAPVVYVTVLVVGFPANCLSLYFGYLQIKARNELGVYLCNLTVADLFYICSLPFWLQYVLQHDNWSHGDLSCQVCGILLYENIYISVGFLCCISVDRYLAVAHPFRFHQFRTLKAAVGVSVVIWAKELLTSIYFLMHEEVIEDENQHRVCFEHYPIQAWQRAINYYRFLVGFLFPICLLLASYQGILRAVRRSHGTQKSRKDQIQRLVLSTVVIFLACFLPYHVLLLVRSVWEASCDFAKGVFNAYHFSLLLTSFNCVADPVLYCFVSETTHIDLARLRGACLAFLTCSRTGRAREAYPLGAPEASGKSGAQGEEPELLTKLHPAFQTPNSPGSGGFPTGRLA [R295I], the cAMP reporter score is -0.175 in series [1] (pH 5.5); -1.11 in series [1] (pH 6); -0.396 in series [1] (pH 6, modulator: ogerin); -0.695 in series [1] (pH 6.5, modulator: ogerin). Also, the surface expression score in series [2] was 0.458.
